{"source": "paper PMC9574860", "about": "“Chemical Toolkit for PARK7: Potent, Selective, and High-Throughput” (Journal of Medicinal Chemistry, 2022)", "note": "Out of some 7,900 compounds screened, about 400 (5.1%) showed an effect of 50% or more. The list shows a part of the results.", "data": [{"target": "Parkinson's disease protein 7 (PARK7/DJ1) (human, UniProt Q99497)", "sequence (Q99497 whole entry, looked up, the tested form may be a part)": "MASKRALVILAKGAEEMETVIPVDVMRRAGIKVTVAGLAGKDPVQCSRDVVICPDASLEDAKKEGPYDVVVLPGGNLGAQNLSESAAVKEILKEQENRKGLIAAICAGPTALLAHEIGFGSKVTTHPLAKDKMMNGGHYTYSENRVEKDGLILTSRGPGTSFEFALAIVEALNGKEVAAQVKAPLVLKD", "test": "primary screen, percent inhibition; read as competition with a fluorescent probe by fluorescence polarization; higher = more effect of the substance", "settings": "100 µM", "how_it_was_run": "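Covalent fragments at 100 μM final were incubated 2 h with 0.2 μM PARK7, then 20 nM probe JYQ-107 added for a further 2 h. Fluorescence polarization read at 480/520 nm; relative FP loss versus reference controls gave remaining enzyme activity.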", "units": {"Inhibition %": "%"}, "values": [{"smiles": "Cc1ccc(NC(=O)CCl)c([N+](=O)[O-])c1", "Inhibition %": 7.84}, {"smiles": "CN(Cc1ccc2c(c1)OCCO2)C(=O)CCl", "Inhibition %": 91.9}, {"smiles": "CC(C)C(=O)Nc1ccc(C(=O)CCl)cc1", "Inhibition %": 2.39}, {"smiles": "CN(C)c1cc(B2OC(C)(C)C(C)(C)O2)ccn1", "Inhibition %": 12.6}, {"smiles": "O=C(O)C1(NS(=O)(=O)C=Cc2ccccc2)CCCC1", "Inhibition %": 8.31}, {"smiles": "COc1nccc(B2OC(C)(C)C(C)(C)O2)c1Br", "Inhibition %": 1.49}, {"smiles": "C=CC(=O)NC1CC(=O)N(C)C1", "note": "(stereo not drawn)", "Inhibition %": 16.5}, {"smiles": "C=CC(=O)NCc1cc(OC)no1", "Inhibition %": 6.84}, {"smiles": "CC1(c2cccc(C(F)(F)F)c2)CO1", "note": "(stereo not drawn)", "Inhibition %": 8.47}, {"smiles": "NC(=O)c1c(NC(=O)CCl)sc2c1CCC2", "Inhibition %": 38.6}, {"smiles": "COC1CCC(=CC#N)CC1", "note": "(stereo not drawn)", "Inhibition %": 4.49}, {"smiles": "Cc1ccc(C=CC#N)cc1", "Inhibition %": 5.61}, {"smiles": "CCn1c(SC2CCOC2=O)nc2ccccc2c1=O", "note": "(stereo not drawn)", "Inhibition %": 33.4}, {"smiles": "Cc1ccc(NC(=O)CCl)cc1S(=O)(=O)N(C)C", "Inhibition %": 10.4}, {"smiles": "Cc1ccc(S(=O)(=O)N2CCCC(C3OCCO3)C2)cc1", "note": "(stereo not drawn)", "Inhibition %": 7.16}, {"smiles": "C=CC(=O)NC1(c2ccc(OC)c(F)c2)CCOCC1", "Inhibition %": 11.7}, {"smiles": "C#CCN(C)S(=O)(=O)c1ccc(C#N)nc1", "Inhibition %": 5.89}, {"smiles": "OB(O)c1cc(F)ccc1OCC1CCCO1", "note": "(stereo not drawn)", "Inhibition %": 5.41}, {"smiles": "C=CC(=O)Nc1ccc2c(c1)OCC(=O)N2C", "Inhibition %": 40.9}, {"smiles": "C#CC(=O)c1ccccc1", "Inhibition %": -3.07}, {"smiles": "C=CC(=O)N1CCOC(c2cccs2)C1", "note": "(stereo not drawn)", "Inhibition %": 8.52}, {"smiles": "CC1CC(Sc2nnc(-c3ccco3)o2)C(=O)O1", "note": "(stereo not drawn)", "Inhibition %": 1.96}, {"smiles": "Sc1ncnc2ccsc12", "Inhibition %": 7.25}, {"smiles": "CN(C)CC=CC(=O)NCC1(O)CCCc2ccccc21", "note": "(stereo not drawn)", "Inhibition %": 7.43}, {"smiles": "CCOc1ccc(Cl)cc1S(=O)(=O)n1ccnc1", "Inhibition %": 10.2}, {"smiles": "CCCn1c(S)nc2ccccc2c1=O", "Inhibition %": 1.74}, {"smiles": "C=CC(=O)N1CCN(c2ccc(OC)cn2)CC1", "Inhibition %": 5.59}, {"smiles": "Cc1nc(C)n(CCCl)n1.Cl", "Inhibition %": 4.09}, {"smiles": "C=CC(=O)NC(C)c1oc2ccc(OC)cc2c1C", "note": "(stereo not drawn)", "Inhibition %": 0.0978}, {"smiles": "CC1CCCN(C(=O)C=Cc2cncc(F)c2)C1CN", "note": "(stereo not drawn)", "Inhibition %": 3.68}, {"smiles": "COCC(C)n1c(C)cc(C=C(C#N)C(N)=O)c1C", "note": "(stereo not drawn)", "Inhibition %": 2.81}, {"smiles": "O=C(c1cccnc1S)N1CCC(C2CCOCC2)CC1", "Inhibition %": 12.1}, {"smiles": "OB(O)c1cnn(-c2cccc(C(F)(F)F)c2)c1", "Inhibition %": 10.7}, {"smiles": "O=C(CCl)Nc1cc(C(F)(F)F)cc(C(F)(F)F)c1", "Inhibition %": 8.7}, {"smiles": "Clc1ccccc1COCC1CO1", "note": "(stereo not drawn)", "Inhibition %": 9.97}, {"smiles": "O=S(=O)(c1ccc(Cl)cc1)n1cccn1", "Inhibition %": -0.854}, {"smiles": "O=C(Cn1c(S)nc2ccccc2c1=O)NCCCF", "Inhibition %": 2.06}, {"smiles": "O=C(Oc1ccc(Cl)c2cccnc12)N1CCCC1", "Inhibition %": 1.25}, {"smiles": "COc1ccc(Cl)cc1S(=O)(=O)n1cccn1", "Inhibition %": 2.42}, {"smiles": "C=CC(=O)N1CC(Cc2ccc(C)cc2)C1", "Inhibition %": 2.16}, {"smiles": "CC1COCCN1Cn1nc(-c2ccc(F)cc2)oc1=O", "note": "(stereo not drawn)", "Inhibition %": 7.55}, {"smiles": "N#Cc1nc(Cl)ccc1Cl", "Inhibition %": 1.89}, {"smiles": "CC1CCN(C(=O)CCl)CC1", "Inhibition %": 14.9}, {"smiles": "CC(NC(=O)CCl)c1cccc2ccccc12", "note": "(stereo not drawn)", "Inhibition %": 5.24}, {"smiles": "COc1cc(C)c(C)cc1S(=O)(=O)n1cnc(C)c1", "Inhibition %": 6.69}, {"smiles": "Nc1c(C(=O)CCl)c(=O)[nH]c(=O)n1C1CC1", "Inhibition %": 6.34}, {"smiles": "CC(C)N1CCOC(CCl)C1", "note": "(stereo not drawn)", "Inhibition %": 5.12}, {"smiles": "O=C1CCN1c1ccc(C(F)(F)F)cc1", "Inhibition %": -0.967}, {"smiles": "C=CC(=O)N1CC(COC)(C2CC2)C1", "Inhibition %": 8.62}, {"smiles": "Cc1cc(C(=O)CCl)c(C)[nH]1", "Inhibition %": 98.2}, {"smiles": "C=CC(=O)NC1CCN(c2cccc(F)c2)CC1", "Inhibition %": -0.875}, {"smiles": "Cc1nc(C)n(C(=O)N2CCOCC2)n1", "Inhibition %": 12.2}, {"smiles": "CC1(COS(C)(=O)=O)COC1", "Inhibition %": 18.4}, {"smiles": "C=CC(=O)NC1CCN(c2ncccc2F)C1", "note": "(stereo not drawn)", "Inhibition %": 14.9}, {"smiles": "CCOc1ccc(C=O)c(O)c1", "Inhibition %": 12.4}, {"smiles": "O=C1CN=C(S)N1c1ccc(Cl)cc1", "Inhibition %": -0.469}, {"smiles": "C=CC(=O)Nc1nc(C2CC2)cs1", "Inhibition %": 7.88}, {"smiles": "O=c1onc(-c2cnccn2)n1Cc1cccc(F)c1F", "Inhibition %": 14.9}, {"smiles": "N#CC(=Cc1csnn1)c1ccccn1", "Inhibition %": 6.94}, {"smiles": "C=CC(=O)N1CCOC(c2ccccc2C(F)(F)F)C1", "note": "(stereo not drawn)", "Inhibition %": 0.855}, {"smiles": "NC(=O)CC1(NS(=O)(=O)C=Cc2ccccc2)CCC1", "Inhibition %": 2.61}, {"smiles": "c1cc2c(cc1COCC1CO1)OCO2", "note": "(stereo not drawn)", "Inhibition %": 3.59}, {"smiles": "C=CC(=O)N1CCOC(COC)C1", "note": "(stereo not drawn)", "Inhibition %": 13.6}, {"smiles": "O=S(=O)(C=Cc1ccccc1)NCc1ccccc1", "Inhibition %": 8.21}, {"smiles": "COc1ccccc1CNC(=O)CCl", "Inhibition %": 28}, {"smiles": "Cc1ccn(S(=O)(=O)c2ccc(C)c(C)c2C)n1", "Inhibition %": 1.17}, {"smiles": "O=C1OCCC1Sc1nnc(-c2ccc(Cl)cc2)[nH]1", "note": "(stereo not drawn)", "Inhibition %": 47.6}, {"smiles": "Cc1noc(CCNS(=O)(=O)C=Cc2ccccc2)n1", "Inhibition %": 3.42}, {"smiles": "Cc1ccn(S(=O)(=O)c2ccc(C)c(C)c2)n1", "Inhibition %": 5.98}, {"smiles": "N#Cc1ccc(N2CCSCC2)cn1", "Inhibition %": 6.47}, {"smiles": "Cc1cc(CC(C)NC(=O)c2cccnc2S)n[nH]1", "note": "(stereo not drawn)", "Inhibition %": 5.43}, {"smiles": "C=CC(=O)Nc1cc(C(F)(F)F)n[nH]1", "Inhibition %": 9.56}, {"smiles": "C=CC(=O)NCc1cc(C)on1", "Inhibition %": 8.31}, {"smiles": "C=CC(=O)NCCc1c(C)oc2ccccc12", "Inhibition %": 5.03}, {"smiles": "Cc1cc(C=C(C#N)C(=O)O)ccc1Oc1cccnc1", "Inhibition %": 29.4}, {"smiles": "C#CC(=O)c1ccc(OC)cc1", "Inhibition %": 3.18}, {"smiles": "Cc1cc(C(=O)CCl)c(C)n1-c1ccon1", "Inhibition %": 82.8}, {"smiles": "CCn1cc(S(=O)(=O)Oc2cccc(F)c2)nc1C", "Inhibition %": 3.67}, {"smiles": "CC(C)CCNS(=O)(=O)C=Cc1ccccc1", "Inhibition %": 10.5}, {"smiles": "C=CC(=O)NC1CCCOc2ccccc21", "note": "(stereo not drawn)", "Inhibition %": 5.96}, {"smiles": "COc1ccc(CN(C)C(=O)CCl)cc1", "Inhibition %": 61.5}, {"smiles": "C=CCNS(=O)(=O)C=Cc1ccccc1", "Inhibition %": 7.29}, {"smiles": "O=S1(=O)CCCN1c1cccc(NCc2ccc(B(O)O)cc2)c1", "Inhibition %": 12.3}, {"smiles": "Cc1oc(C(N)=O)cc1C(=O)CCl", "Inhibition %": 30.9}, {"smiles": "N#Cc1ncn(CC(=O)NCc2ccc(F)cc2)n1", "Inhibition %": 8.52}, {"smiles": "CCc1ccccc1NC(=O)CNC(=O)CCl", "Inhibition %": 9.85}, {"smiles": "COc1cccc(NC(=O)CN(C)C(=O)CCl)c1", "Inhibition %": 95.9}, {"smiles": "Cc1ccc(C=C(C#N)C(=O)O)cc1", "Inhibition %": 5.59}, {"smiles": "C#Cc1ccc(NC(=O)C=C)cc1", "Inhibition %": 28.3}, {"smiles": "COCCn1c(C)cc(C(=O)CCl)c1C", "Inhibition %": 49.1}, {"smiles": "C=CC(=O)Nc1cc(CC(C)(C)C)nn1C", "Inhibition %": 8.54}, {"smiles": "CC(=O)N1CCCC(S(=O)(=O)Oc2cccc(F)c2)C1", "note": "(stereo not drawn)", "Inhibition %": 4.42}, {"smiles": "CCOc1cc(C)c(Cl)cc1S(=O)(=O)n1ccnc1", "Inhibition %": 2.09}, {"smiles": "O=C(CCl)N1CCNC1=O", "Inhibition %": 78}, {"smiles": "CC(C)C1(c2ccccc2)CO1", "note": "(stereo not drawn)", "Inhibition %": 4.43}, {"smiles": "O=C(CCl)NNc1c(Cl)cc(Cl)cc1Cl", "Inhibition %": 3.13}, {"smiles": "CS(=O)(=O)N1CCN(C(=O)Oc2ccccc2)CC1", "Inhibition %": 10.1}, {"smiles": "O=C(Oc1ccnc2cc(Cl)ccc12)N1CCOCC1", "Inhibition %": 6.01}, {"smiles": "CC1NC(=O)N(CCCl)C1=O", "note": "(stereo not drawn)", "Inhibition %": 7.7}, {"smiles": "N#CCC1(O)CN(S(=O)(=O)C=Cc2ccc(Cl)cc2)C1", "Inhibition %": 0.0636}, {"smiles": "CCN(Cc1cccc(F)c1)C(=O)CCl", "Inhibition %": 6.87}, {"smiles": "COc1cc(S(=O)(=O)n2ccnc2)ccc1Cl", "Inhibition %": 10}, {"smiles": "Cl.ClCC12CCN(CC1)CC2", "Inhibition %": 9.63}, {"smiles": "CC1(C)OB(c2ccc(F)c(OC(F)(F)F)c2)OC1(C)C", "Inhibition %": 6.24}, {"smiles": "CC1(C(=O)O)CCN(C(=O)C=Cc2ccccn2)C1", "note": "(stereo not drawn)", "Inhibition %": 5.25}, {"smiles": "O=C(CCl)Nc1ncc([N+](=O)[O-])s1", "Inhibition %": 96.3}, {"smiles": "N#Cc1cc(Oc2ccc(N)cc2)ccn1", "Inhibition %": 13.6}, {"smiles": "Cc1cc(CN(C)S(=O)(=O)C=Cc2ccccc2)no1", "Inhibition %": -3.7}, {"smiles": "C=C(C)CN1CCN(c2oc(C3CC3)nc2C#N)CC1", "Inhibition %": 3.31}, {"smiles": "CSC1CCCC(Nc2ccc(C#N)nc2)C1", "note": "(stereo not drawn)", "Inhibition %": 8.87}, {"smiles": "N#Cc1cc(C(=O)Nc2cc[nH]n2)c[nH]1", "Inhibition %": 19.5}, {"smiles": "Cc1ccc(NC(=O)CCl)cc1S(N)(=O)=O", "Inhibition %": 17.6}, {"smiles": "C=CC(=O)NC1CCCC2CCCCC21", "note": "(stereo not drawn)", "Inhibition %": 1.96}, {"smiles": "Cc1ccccc1-c1noc(=O)n1CC(N)=O", "Inhibition %": 4.11}, {"smiles": "O=C(CCl)NNC(=O)c1cc2c(s1)CCCC2", "Inhibition %": 4.38}, {"smiles": "C=CC(=O)N1CCN(C2CC2)c2cc(F)ccc21", "Inhibition %": 18.7}, {"smiles": "Cc1cc(C)c(NC(=O)Cn2cnc(C#N)n2)c(C)c1", "Inhibition %": 3.59}, {"smiles": "OB(O)C1CCN(Cc2cc3n(n2)CCCC3)C1", "note": "(stereo not drawn)", "Inhibition %": 5.29}, {"smiles": "N#CN(CC1CCOC1)c1ccc(F)cc1", "note": "(stereo not drawn)", "Inhibition %": 6.47}, {"smiles": "O=C(CCl)NCC1CCCc2ccccc21", "note": "(stereo not drawn)", "Inhibition %": 0.905}, {"smiles": "Cc1nc(S)c(C#N)c(C)c1C", "Inhibition %": 3.15}, {"smiles": "C=CC(=O)NC1CC(OCC)C12CCCC2", "note": "(stereo not drawn)", "Inhibition %": 8.99}, {"smiles": "O=C1CN=C(S)N1c1ccccc1Cl", "Inhibition %": 5.52}, {"smiles": "C=CC(=O)N1CCNC(=O)C1Cc1nc2ccccc2o1", "note": "(stereo not drawn)", "Inhibition %": 7.43}, {"smiles": "COc1ccc(-c2csc(NC(=O)CCl)n2)cc1", "Inhibition %": 14}, {"smiles": "CC(NC(=O)CCl)c1cccs1", "note": "(stereo not drawn)", "Inhibition %": 9.37}]}]}
